Data on 10 compounds can be found in the antibiotic and cytotoxicity screens of Wong et al. (2023).

Molecules are shown by their SMILES. This is one part of the list.

Assay [1] relates to HSkMC (human skeletal muscle cells). Put plainly: cytotoxicity call (relative viability < 0.9). The settings on record: 10 µM.
Assay [2] deals with HepG2. Put plainly: cytotoxicity call (relative viability < 0.9). The settings on record: 10 µM.
In assay [3] the test system is S. aureus RN4220. Put plainly: growth inhibition call (relative growth <= 0.2). The settings on record: 50 µM.

`O=C(C[C@H]1C[C@H]2c3cc(NC(=O)NC4CCCC4)ccc3O[C@H]2[C@@H](CO)O1)NCc1ccc(-c2ccccc2)cc1`: the cytotoxicity call in assay [1] and in assay [2] was “inactive” throughout. Moreover, the growth inhibition call in assay [3] was “inactive”.
With `COc1ccc(NC(=O)N(C)C[C@@H]2Oc3c(NC(=O)Nc4ccc(C(F)(F)F)cc4)cccc3C(=O)N([C@@H](C)CO)C[C@@H]2C)cc1`, the cytotoxicity call in assay [1] and in assay [2] was “inactive” each time. Further, the growth inhibition call in assay [3] is “active”.
Consider `CNC[C@H]1OCCCC[C@H](C)Oc2ccc(NS(=O)(=O)c3c(C)noc3C)cc2C(=O)N([C@H](C)CO)C[C@H]1C`, for which the cytotoxicity call in assay [1] and in assay [2] was “inactive” in each case. Moreover, the growth inhibition call in assay [3] is “inactive”.
With `NC[C@H]1CCCN(C(=O)Nc2ccc(Oc3ccccc3)cc2)C1`, the cytotoxicity call in assay [1] and in assay [2] was “inactive” each time. In assay [3], the growth inhibition call was “inactive”.
For the compound `CCNC(=O)C[C@H]1CC[C@H]2[C@@H](COC[C@H](O)CN2C(=O)Nc2c(C)noc2C)O1`, the cytotoxicity call in assay [1] and in assay [2] was “inactive” throughout. Also, the growth inhibition call in assay [3] is “inactive”.
On to `Cc1ccc(S(=O)(=O)N(C)C[C@@H]2Oc3cc(C#Cc4ccccc4)ccc3S(=O)(=O)N([C@H](C)CO)C[C@@H]2C)cc1`, for which the cytotoxicity call in assay [1] and in assay [2] was “inactive” in each case. The growth inhibition call in assay [3] is “inactive”.
Turning to `O=C(C[C@@H]1CC[C@H](NS(=O)(=O)c2ccc(F)cc2)[C@@H](CO)O1)N1CCC(Cc2ccccc2)CC1`, the cytotoxicity call in assay [1] and in assay [2] was “inactive” each time. Moreover, the growth inhibition call in assay [3] was “inactive”.
As to `COCCNC(=O)C[C@H]1CC[C@@H]2[C@H](COC[C@@H](O)CN2C(=O)Nc2ccc3c(c2)OCO3)O1`, the cytotoxicity call in assay [1] and in assay [2] was “inactive” each time. Moreover, the growth inhibition call in assay [3] was “inactive”.
Consider `Cc1noc(C)c1NC(=O)Nc1ccc2c(c1)C(=O)N([C@@H](C)CO)C[C@@H](C)[C@@H](CN(C)S(=O)(=O)c1c(C)noc1C)O2`, for which the cytotoxicity call in assay [1] and in assay [2] was “inactive” each time. Further, in assay [3], the growth inhibition call was “inactive”.
As for `CC(C)NC(=O)Nc1cccc2c1O[C@@H](CN(C)S(=O)(=O)c1ccccc1)[C@@H](C)CN([C@@H](C)CO)C2=O`, the cytotoxicity call in assay [1] and in assay [2] was “inactive” each time. For the same compound, in assay [3], the growth inhibition call is “inactive”.
